Data published in PubChem BioAssay AID1745853 (National Center for Advancing Translational Sciences (NCATS), 2022).
The other results are listed elsewhere or left out. The main result of the screen is listed elsewhere. These columns were measured beside it and carry no call.

How the values were obtained:
Test in all cases: Primary Screen for Target Class Profiling of Small Molecule Inhibitors of Methyltransferases
[1] = molecular target: Glycine N-methyltransferase (Homo sapiens) (UniProt Q14749); details: purified enzyme, MTase-Glo SAH luminescence; measured here: GNMT inhibition; at 40 µM; stronger effect = lower value
Summary of the method: (§1)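 Each enzyme was reacted with SAM and its substrate, with compounds tested once at 40 uM; SAH formed was read by MTase-Glo luminescence.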

[2] = molecular target: Guanidinoacetate N-methyltransferase (Homo sapiens) (UniProt Q14353); details: purified enzyme, MTase-Glo SAH luminescence; measured here: GAMT inhibition; at 40 µM; stronger effect = lower value
Summary of the method: as §1

[3] = molecular target: Histamine N-methyltransferase (Homo sapiens) (UniProt P50135); details: purified enzyme, MTase-Glo SAH luminescence; measured here: HNMT inhibition; at 40 µM; stronger effect = lower value
Summary of the method: as §1

[4] = molecular target: Nicotinamide N-methyltransferase (Homo sapiens) (UniProt P40261); details: purified enzyme, MTase-Glo SAH luminescence; measured here: NNMT inhibition; at 40 µM; stronger effect = lower value
Summary of the method: as §1

[5] = molecular target: Phenylethanolamine N-methyltransferase (Homo sapiens) (UniProt P11086); details: purified enzyme, MTase-Glo SAH luminescence; measured here: PNMT inhibition; at 40 µM; stronger effect = lower value
Summary of the method: as §1
% is set by controls: 0 for no effect and ±100 for the full control effect.

Structure (SMILES)	activity change, negative = inhibition [1]	activity change, negative = inhibition [2]	activity change, negative = inhibition [3]	activity change, negative = inhibition [4]	activity change, negative = inhibition [5]
N#C/C(=C1\Nc2ccccc2S1)c1ccnc(NCCc2cccnc2)n1	-73.3%	3.83%	-38.6%	-45.3%	-20%
CC(C)S(=O)(=O)NC[C@H](C)c1ccc(NC(=O)c2cc(F)cc(F)c2)cc1	5.95%	4.75%	10%	-7.22%	0.916%
CCCn1cc(C(=O)N2CC(=O)N(c3cccc(C)c3)CC2C)c(C)n1 (stereo not given)	-5.16%	-8.24%	-11.5%	-12.5%	7.93%
Cc1ccccc1N1C(=O)CSc2c(c3ccccc3n2C)C1C(=O)NCc1ccccc1 (stereo not given)	0.692%	4.88%	-1.31%	-2.99%	-1.32%
COc1cccc(CSc2nnc3n(CC(C)C)c(=O)c4ccc(C(=O)NC(C)C)cc4n23)c1	2.94%	3.8%	5.3%	-0.227%	-0.265%
Cc1ccc(C2NC(C(=O)O)Cc3c2[nH]c2ccccc32)cc1 (stereo not given)	-7.53%	1.95%	0.319%	-1.66%	-3.7%
C=CCOc1ccc(-c2nnc(CCC(=O)NCCOc3ccccc3)c(=O)[nH]2)cc1	-9.42%	-12.8%	-9.58%	-7.7%	-11.6%
CCOc1ccc(N2C(=O)Cn3cccc3C2C(=O)NC2CCCC(C)C2C)cc1 (stereo not given)	6.82%	0.782%	6.61%	2.57%	1.84%
CN1C(=O)c2cc(C(=O)NCCCc3ccccc3)nn2CC1(C)C(=O)NC1CCCC1 (stereo not given)	6.13%	0.441%	1.24%	6.13%	4.53%
O=C(c1ccc2c(=O)nc3c(-c4ccccc4F)n[nH]n3c2c1)N1CCN(C2CCCCC2)CC1	-5.73%	2.72%	-10.9%	4.51%	3.45%
CCOc1ccccc1CN1C[C@@H](CO)[C@H](NC(=O)c2cccnc2)C1	-0.544%	0.303%	-8.21%	11.7%	1.62%
COc1cccc(S(=O)(=O)N2CC3CN(C)CC(C2)O3)c1	6%	0%	13.7%	1.29%	7.89%
CN1C(=O)c2cc3ccccc3n2CC1(C)C(=O)NCC(=O)NCc1ccccc1 (stereo not given)	-1.28%	4.14%	0.322%	7.08%	-3.96%
O=C(Nc1ccccc1)N1Cc2c(sc3c2CCCC3)-n2cccc2C1c1ccc(Cl)cc1 (stereo not given)	4.17%	0%	3.61%	3.81%	7.75%
COCCS(=O)(=O)c1ncc(CN(C)C(C)c2ccon2)n1Cc1ccccc1 (stereo not given)	1.07%	3.61%	2.63%	-1.91%	-1.41%
COc1cc2c(cc1OC)N1C(=O)C[C@@]34C=CC[N@+]5([O-])CC[C@H]2[C@H](CC3)[C@@]145	0.653%	-0.102%	7.53%	-14.8%	5.48%
Cc1nn(CC(=O)N2CCC3(CCCN(C)CC3)CC2)c(=O)c2ccccc12	-11.1%	1.4%	-5.06%	-3.05%	-1.95%
c1ccc(COc2ccc(CN3CCN(C4CCNC4)CC3)cc2)cc1 (stereo not given)	-7.45%	-11.5%	-18.8%	-10.8%	-26.9%
COC(=O)c1cc2n(n1)CC(C)(C(=O)NC1CCCCCC1)N(c1ccc(C)cc1)C2=O (stereo not given)	0.897%	1.33%	-9.87%	4.92%	1.95%
O=C([C@@H]1CNC[C@H](C(=O)N2CCC(c3ccncn3)CC2)C1)N1CCCC1	-6.55%	-4.61%	-0.362%	-13.3%	-9.39%

Structure (SMILES)	activity change, negative = inhibition [1]	activity change, negative = inhibition [2]	activity change, negative = inhibition [3]	activity change, negative = inhibition [4]	activity change, negative = inhibition [5]
Cc1ccc(Cl)cc1N1CCN(S(=O)(=O)c2ccc3c(c2)n(C)c(=O)n3C)CC1	-3.8%	2.3%	3%	-4.16%	0.656%
CNC(=O)[C@@H](CC(C)C)N1CCC[C@H]1C(=O)N[C@@H](CO)CC(C)C	-5.83%	-8.77%	-3.37%	-10.8%	4.18%
CCCn1c(=O)c2ccc(C(=O)NCC(C)C)cc2n2c(=O)n(Cc3ccccc3)nc12	0.204%	0.72%	1.72%	1.36%	3.08%
CCO[C@H]1CN(C2CCN(CCc3ccccc3)CC2)C[C@@H]1O	0.98%	-1.22%	-0.379%	3.41%	5.42%
O=C(CCn1ccc2cc(S(=O)(=O)N3CCCC3)ccc21)NCc1ccccc1	-7.08%	0%	-0.185%	-9.45%	-6.71%
COc1cc(CO)cc(OC)c1O[C@@H]1O[C@H](CO)[C@@H](O)[C@H](O)[C@H]1O	4.89%	4.76%	10.4%	-7.66%	8.47%
COc1cccc([C@H]2Nc3ccc(S(=O)(=O)Nc4ccc(C)cc4C)cc3[C@H]3C=CC[C@H]32)c1	-14.2%	-10.3%	-18.4%	-37.8%	-16%
CCCn1c(=O)c2ccc(C(=O)NC3CCCC3)cc2n2c(=O)n(CC(=O)c3ccc(C)cc3)nc12	-1.17%	3.12%	-3.27%	-5.24%	-1.82%
Cc1cc(C)cc(NC(=O)CCc2nnc3n(CCCOC(C)C)c(=O)c4ccccc4n23)c1	-3.2%	0%	6.65%	11.7%	1.58%
CCCN1C(=O)c2c(C(=O)Nc3ccc(CC)cc3)ncn2CC1(C)C(=O)NCc1ccccc1 (stereo not given)	-11.5%	-0.564%	-3.83%	-3.85%	-6.69%
CC1=C(/C=C/C(C)=C/C=C/C(C)=C/C(=O)O)C(C)(C)CCC1	-12.1%	8.68%	4.45%	-8.69%	-0.441%
O=C1NCc2ccccc2CC12CCN(Cc1ccc(F)cc1)CC2	-4.37%	-6.37%	-3.97%	-10.6%	-0.619%
Cc1ccc(Cn2nc3n(Cc4ccc(C)cc4)c(=O)c4ccccc4n3c2=O)cc1	7.83%	0%	11.3%	6.76%	4.41%
COc1ccccc1CCN1CCCC(CN(C)C(=O)Nc2ccccc2)C1 (stereo not given)	-2%	0.157%	-22.8%	-6.56%	-0.448%
COc1ccc(-c2cc3n(n2)CC(C)(C(=O)NC2CCCCC2)N(C2CCCCCC2)C3=O)cc1 (stereo not given)	-2.36%	2.4%	2.56%	1.02%	-3.24%
COC(=O)c1ncn2c1C(=O)N(c1ccc(C(C)C)cc1)C(C)(C(=O)NC1CCCCCC1)C2 (stereo not given)	5.64%	1.62%	6.64%	7.67%	3.48%
CC(C)c1ccc(-n2cc(CN3CCN(C(=O)N(C)C)CC3)cn2)cc1	-7.09%	-6.54%	-1.75%	-10.8%	-4.32%
CC1CCC2(C(=O)OC3OC(CO)C(O)C(O)C3O)CCC3(C(=O)O)C(=CCC4C5(C)CCC(OC6OC(C)C(O)C(O)C6O)C(C)(C)C5CCC43C)C2C1C (stereo not given)	-0.469%	-4.3%	2.53%	-17.1%	0.597%
COc1ccc(N2C(=O)c3cc4sccc4n3CC2(C)C(=O)NC2CCCC(C)C2C)cc1OC (stereo not given)	0.317%	0%	6.36%	6.82%	2.35%
CCCc1[nH]nc2c1C(c1cc(Cl)cc(Cl)c1O)C(C#N)=C(N)O2 (stereo not given)	-0.175%	4.78%	7.27%	-34.4%	-0.099%

Structure (SMILES)	activity change, negative = inhibition [1]	activity change, negative = inhibition [2]	activity change, negative = inhibition [3]	activity change, negative = inhibition [4]	activity change, negative = inhibition [5]
C=CCNc1nc(CC)nc2c1CCN(C(=O)c1cn(C)nc1C)CC2	-2.83%	-9.74%	-3.73%	-10.3%	6.31%
O=C(NCc1ccccc1)c1ccc2c(=O)nc3c(-c4ccc(F)cc4)n[nH]n3c2c1	-12%	4.07%	-2.43%	-9.88%	-8.25%
COc1ccc(OC)c(Nc2nc3c(S(=O)(=O)c4ccc(C)cc4)nnn3c3ccccc23)c1	-1.25%	4.32%	-0.955%	7.46%	-2.99%
COc1ccc(-c2cc3n(n2)CC(C)(C(=O)NCc2ccccc2OC)N(c2cccc(OC)c2)C3=O)cc1 (stereo not given)	8.11%	1.2%	10.2%	12.2%	3.46%
O=C(CCn1ccc2cc(S(=O)(=O)N3CCCCC3)ccc21)N1CCc2ccccc2C1	3.44%	5.06%	2.45%	-3.92%	-2.77%
CCOC(=O)c1cc2n(n1)CC(C)(C(=O)NC1CCC(C)CC1)N(c1cccc(F)c1)C2=O (stereo not given)	1.25%	0.916%	-2.13%	1.18%	2.75%
O=S(=O)(c1ccc2[nH]c3c(c2c1)CCCC3)N1CCc2ccccc21	2.16%	3%	3.95%	0.218%	1.27%
CCc1ccc(-c2cc3n(n2)CC(C)(C(=O)NC2CCCCC2)N(CCCOC(C)C)C3=O)cc1 (stereo not given)	0.113%	1.41%	2.02%	-2.35%	-1.6%
COc1ccc(C(=O)N[C@@H]2CN(c3ncccn3)C[C@H]2CN(C)C)cn1	-3.92%	-12.4%	-2.52%	-10.1%	-2.64%
CCc1cc2c(cc3n2CC(C)(C(=O)NC2CCC(C)CC2)N(Cc2cccs2)C3=O)s1 (stereo not given)	1.47%	0%	2.03%	-3.85%	-0.876%
CC(=O)N1CCC(C2CCN(C(=O)c3nn(C)c4ccccc34)C2)CC1 (stereo not given)	-8.97%	-9.38%	-3.44%	-14.8%	-6.43%
CCCn1c(=O)c2ccc(C(=O)NC3CCCC3)cc2n2c(=O)n(Cc3ccc(Cl)cc3)nc12	2.96%	0%	4.45%	2.72%	-0.395%
CCOc1ccc(N2C(=O)c3cc4ccccc4n3CC2(C)C(=O)NC2CCCCCC2)cc1 (stereo not given)	2.3%	4.23%	3%	-1.93%	-4.09%
CC1(C)CC[C@]2(C(=O)O[C@@H]3O[C@H](CO)[C@@H](O)[C@H](O)[C@H]3O)CC[C@]3(C)C(=CCC4[C@@]5(C)C[C@@H](O)[C@H](O)[C@@](C)(CO)C5CC[C@]43C)C2[C@@H]1O (stereo not given in full)	-3.62%	-9.05%	0.553%	-18.5%	0.481%
O=C(CCCCCCCCC#CI)Oc1ccccc1	-18.5%	-18.6%	11%	-14.1%	-4.5%
Cc1cc(C(=O)N2Cc3cnn(C)c3Nc3ccccc32)ccc1CNC(=O)N1CCC[C@H]1C(=S)N1CCCN(C)CC1	-10.6%	-2.06%	-22.7%	-18.5%	-9.04%
Cc1noc([C@@H]2CN(C(=O)CCc3nc4ccccc4s3)C[C@H]2C(N)=O)n1	-1.97%	-3.6%	-0.67%	-4.08%	-2.79%
COC(=O)C1=CO[C@@H](O[C@@H]2O[C@H](CO)[C@@H](O)[C@H](O)[C@H]2O)[C@@H]2C(CO)=CC[C@]12O	10.3%	14%	9.52%	2.27%	5.81%
